Measured values reported in ChEMBL document CHEMBL1961873, “Compounds: GSK PKIS; Assays: Nanosyn kinase panel” (2012).
For some assays here: This list holds what a sample rich in strong results left over. This is a selection; strong and weak results do not stand in their true shares.

What was measured:
[1] = biological target: 5'-AMP-activated protein kinase catalytic subunit alpha-2 (Homo sapiens) (UniProt P54646); settings: at 1 µM
[2] = biological target: T1, NUAK family SNF1-like kinase 1 (Homo sapiens) (UniProt O60285); settings: at 0.1 µM
T1 sequence (whole entry): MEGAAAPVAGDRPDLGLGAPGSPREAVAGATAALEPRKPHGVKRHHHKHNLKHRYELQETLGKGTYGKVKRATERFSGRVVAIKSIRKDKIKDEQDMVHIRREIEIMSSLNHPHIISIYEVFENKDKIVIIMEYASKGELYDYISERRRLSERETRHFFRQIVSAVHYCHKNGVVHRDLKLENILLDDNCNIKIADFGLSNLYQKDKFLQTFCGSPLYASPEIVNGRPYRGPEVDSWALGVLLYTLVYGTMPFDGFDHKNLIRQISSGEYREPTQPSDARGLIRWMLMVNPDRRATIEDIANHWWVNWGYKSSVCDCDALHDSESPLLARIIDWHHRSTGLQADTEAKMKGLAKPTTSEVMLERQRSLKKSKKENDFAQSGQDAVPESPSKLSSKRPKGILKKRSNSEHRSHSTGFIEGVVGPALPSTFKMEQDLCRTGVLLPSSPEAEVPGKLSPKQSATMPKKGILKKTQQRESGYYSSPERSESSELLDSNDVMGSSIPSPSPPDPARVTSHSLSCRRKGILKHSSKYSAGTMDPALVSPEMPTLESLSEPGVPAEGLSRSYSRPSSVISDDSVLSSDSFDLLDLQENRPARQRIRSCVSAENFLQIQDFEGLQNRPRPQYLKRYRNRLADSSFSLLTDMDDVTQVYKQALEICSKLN

[3] = biological target: T1, NUAK family SNF1-like kinase 1 (Homo sapiens); settings: at 1 µM
[4] = biological target: T2, Serine/threonine-protein kinase BRSK1 (Homo sapiens) (UniProt Q8TDC3); settings: at 0.1 µM
T2 sequence (whole entry): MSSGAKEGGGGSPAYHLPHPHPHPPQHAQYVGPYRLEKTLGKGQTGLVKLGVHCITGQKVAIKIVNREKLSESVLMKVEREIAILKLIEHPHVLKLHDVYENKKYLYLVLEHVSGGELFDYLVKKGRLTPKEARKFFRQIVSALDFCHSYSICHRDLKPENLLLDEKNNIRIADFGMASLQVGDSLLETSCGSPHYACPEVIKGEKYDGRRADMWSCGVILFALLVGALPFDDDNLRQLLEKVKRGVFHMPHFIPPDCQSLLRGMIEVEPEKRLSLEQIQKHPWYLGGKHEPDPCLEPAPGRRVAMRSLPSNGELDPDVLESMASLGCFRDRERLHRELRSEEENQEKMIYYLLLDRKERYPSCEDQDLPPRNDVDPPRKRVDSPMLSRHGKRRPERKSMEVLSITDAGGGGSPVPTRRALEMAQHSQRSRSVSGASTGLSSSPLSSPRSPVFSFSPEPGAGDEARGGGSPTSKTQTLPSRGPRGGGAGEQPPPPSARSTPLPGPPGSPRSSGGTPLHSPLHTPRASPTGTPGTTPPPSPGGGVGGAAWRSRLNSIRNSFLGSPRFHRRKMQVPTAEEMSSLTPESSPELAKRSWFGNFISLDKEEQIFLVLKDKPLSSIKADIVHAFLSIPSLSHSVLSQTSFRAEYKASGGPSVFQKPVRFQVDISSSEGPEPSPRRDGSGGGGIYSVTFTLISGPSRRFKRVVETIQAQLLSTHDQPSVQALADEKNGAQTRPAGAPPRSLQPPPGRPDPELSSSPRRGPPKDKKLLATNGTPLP

[5] = biological target: T2, Serine/threonine-protein kinase BRSK1 (Homo sapiens); settings: at 1 µM
[6] = biological target: T3, Serine/threonine-protein kinase BRSK2 (Homo sapiens) (UniProt Q8IWQ3); settings: at 0.1 µM
T3 sequence (whole entry): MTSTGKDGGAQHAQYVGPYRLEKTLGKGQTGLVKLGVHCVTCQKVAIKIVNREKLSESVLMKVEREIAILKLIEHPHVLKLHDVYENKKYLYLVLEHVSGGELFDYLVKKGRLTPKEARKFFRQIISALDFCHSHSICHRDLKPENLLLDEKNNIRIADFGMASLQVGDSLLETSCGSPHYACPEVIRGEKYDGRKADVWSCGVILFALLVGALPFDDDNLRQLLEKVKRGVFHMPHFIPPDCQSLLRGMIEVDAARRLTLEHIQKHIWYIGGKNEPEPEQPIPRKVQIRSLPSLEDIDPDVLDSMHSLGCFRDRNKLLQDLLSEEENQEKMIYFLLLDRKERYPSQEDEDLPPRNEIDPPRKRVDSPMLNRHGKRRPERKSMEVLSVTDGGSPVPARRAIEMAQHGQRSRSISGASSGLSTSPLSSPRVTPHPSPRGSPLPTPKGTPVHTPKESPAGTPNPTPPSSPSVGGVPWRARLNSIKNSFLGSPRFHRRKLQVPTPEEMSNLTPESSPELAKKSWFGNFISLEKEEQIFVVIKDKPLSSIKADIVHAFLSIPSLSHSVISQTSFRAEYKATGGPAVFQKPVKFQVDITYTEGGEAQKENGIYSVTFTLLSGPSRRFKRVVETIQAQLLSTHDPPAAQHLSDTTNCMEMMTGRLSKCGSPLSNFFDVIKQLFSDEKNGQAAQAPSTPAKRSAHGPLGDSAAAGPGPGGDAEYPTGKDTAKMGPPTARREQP

[7] = biological target: T3, Serine/threonine-protein kinase BRSK2 (Homo sapiens); settings: at 1 µM
[8] = biological target: Calcium/calmodulin-dependent protein kinase type 1D (Homo sapiens) (UniProt Q8IU85); settings: at 0.1 µM
[9] = biological target: Calcium/calmodulin-dependent protein kinase type 1D (Homo sapiens) (UniProt Q8IU85); settings: at 1 µM
[10] = biological target: Calcium/calmodulin-dependent protein kinase type II subunit alpha (Homo sapiens) (UniProt Q9UQM7); settings: at 0.1 µM
[11] = biological target: Calcium/calmodulin-dependent protein kinase type II subunit alpha (Homo sapiens) (UniProt Q9UQM7); settings: at 1 µM
[12] = biological target: Calcium/calmodulin-dependent protein kinase type II subunit delta (Homo sapiens) (UniProt Q13557); settings: at 0.1 µM
[13] = biological target: Calcium/calmodulin-dependent protein kinase type II subunit delta (Homo sapiens) (UniProt Q13557); settings: at 1 µM
[14] = biological target: T4, Calcium/calmodulin-dependent protein kinase type IV (Homo sapiens) (UniProt Q16566); settings: at 0.1 µM
T4 sequence (whole entry): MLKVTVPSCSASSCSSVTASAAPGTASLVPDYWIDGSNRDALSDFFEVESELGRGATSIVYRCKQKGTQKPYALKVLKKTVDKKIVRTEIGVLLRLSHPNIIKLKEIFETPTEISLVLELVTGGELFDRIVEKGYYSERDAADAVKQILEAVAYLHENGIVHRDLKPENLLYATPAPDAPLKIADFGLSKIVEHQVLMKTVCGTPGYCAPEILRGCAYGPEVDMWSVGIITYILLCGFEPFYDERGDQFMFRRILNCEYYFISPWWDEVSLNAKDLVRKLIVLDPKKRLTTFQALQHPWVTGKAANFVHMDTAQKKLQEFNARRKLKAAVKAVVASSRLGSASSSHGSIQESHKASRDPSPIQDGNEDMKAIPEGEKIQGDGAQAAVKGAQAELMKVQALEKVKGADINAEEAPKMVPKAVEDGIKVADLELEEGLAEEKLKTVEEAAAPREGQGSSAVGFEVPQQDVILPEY

[15] = biological target: T4, Calcium/calmodulin-dependent protein kinase type IV (Homo sapiens); settings: at 1 µM
[16] = biological target: T5, Serine/threonine-protein kinase Chk1 (Homo sapiens) (UniProt O14757); settings: at 0.1 µM
T5 sequence (whole entry): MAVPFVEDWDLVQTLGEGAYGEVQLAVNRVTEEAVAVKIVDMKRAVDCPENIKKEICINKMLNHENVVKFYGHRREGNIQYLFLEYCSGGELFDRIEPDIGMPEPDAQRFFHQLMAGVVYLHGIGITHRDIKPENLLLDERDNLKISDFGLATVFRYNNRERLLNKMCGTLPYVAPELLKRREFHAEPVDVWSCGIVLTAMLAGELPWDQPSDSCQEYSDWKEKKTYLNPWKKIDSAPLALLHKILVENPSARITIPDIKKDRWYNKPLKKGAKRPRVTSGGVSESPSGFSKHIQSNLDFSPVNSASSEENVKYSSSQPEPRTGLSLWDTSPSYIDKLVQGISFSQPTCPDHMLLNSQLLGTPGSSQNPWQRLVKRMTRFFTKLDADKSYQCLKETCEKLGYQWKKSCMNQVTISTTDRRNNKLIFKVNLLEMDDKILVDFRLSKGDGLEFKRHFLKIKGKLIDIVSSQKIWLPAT

[17] = biological target: T5, Serine/threonine-protein kinase Chk1 (Homo sapiens); settings: at 1 µM
[18] = biological target: Serine/threonine-protein kinase Chk2 (Homo sapiens) (UniProt O96017); settings: at 0.1 µM
[19] = biological target: Serine/threonine-protein kinase Chk2 (Homo sapiens) (UniProt O96017); settings: at 1 µM
[20] = biological target: Death-associated protein kinase 1 (Homo sapiens) (UniProt P53355); settings: at 0.1 µM;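 further: reported figure is the mean inhibition of DAPK1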
UniProt P53355, sequence (P53355 whole entry, looked up): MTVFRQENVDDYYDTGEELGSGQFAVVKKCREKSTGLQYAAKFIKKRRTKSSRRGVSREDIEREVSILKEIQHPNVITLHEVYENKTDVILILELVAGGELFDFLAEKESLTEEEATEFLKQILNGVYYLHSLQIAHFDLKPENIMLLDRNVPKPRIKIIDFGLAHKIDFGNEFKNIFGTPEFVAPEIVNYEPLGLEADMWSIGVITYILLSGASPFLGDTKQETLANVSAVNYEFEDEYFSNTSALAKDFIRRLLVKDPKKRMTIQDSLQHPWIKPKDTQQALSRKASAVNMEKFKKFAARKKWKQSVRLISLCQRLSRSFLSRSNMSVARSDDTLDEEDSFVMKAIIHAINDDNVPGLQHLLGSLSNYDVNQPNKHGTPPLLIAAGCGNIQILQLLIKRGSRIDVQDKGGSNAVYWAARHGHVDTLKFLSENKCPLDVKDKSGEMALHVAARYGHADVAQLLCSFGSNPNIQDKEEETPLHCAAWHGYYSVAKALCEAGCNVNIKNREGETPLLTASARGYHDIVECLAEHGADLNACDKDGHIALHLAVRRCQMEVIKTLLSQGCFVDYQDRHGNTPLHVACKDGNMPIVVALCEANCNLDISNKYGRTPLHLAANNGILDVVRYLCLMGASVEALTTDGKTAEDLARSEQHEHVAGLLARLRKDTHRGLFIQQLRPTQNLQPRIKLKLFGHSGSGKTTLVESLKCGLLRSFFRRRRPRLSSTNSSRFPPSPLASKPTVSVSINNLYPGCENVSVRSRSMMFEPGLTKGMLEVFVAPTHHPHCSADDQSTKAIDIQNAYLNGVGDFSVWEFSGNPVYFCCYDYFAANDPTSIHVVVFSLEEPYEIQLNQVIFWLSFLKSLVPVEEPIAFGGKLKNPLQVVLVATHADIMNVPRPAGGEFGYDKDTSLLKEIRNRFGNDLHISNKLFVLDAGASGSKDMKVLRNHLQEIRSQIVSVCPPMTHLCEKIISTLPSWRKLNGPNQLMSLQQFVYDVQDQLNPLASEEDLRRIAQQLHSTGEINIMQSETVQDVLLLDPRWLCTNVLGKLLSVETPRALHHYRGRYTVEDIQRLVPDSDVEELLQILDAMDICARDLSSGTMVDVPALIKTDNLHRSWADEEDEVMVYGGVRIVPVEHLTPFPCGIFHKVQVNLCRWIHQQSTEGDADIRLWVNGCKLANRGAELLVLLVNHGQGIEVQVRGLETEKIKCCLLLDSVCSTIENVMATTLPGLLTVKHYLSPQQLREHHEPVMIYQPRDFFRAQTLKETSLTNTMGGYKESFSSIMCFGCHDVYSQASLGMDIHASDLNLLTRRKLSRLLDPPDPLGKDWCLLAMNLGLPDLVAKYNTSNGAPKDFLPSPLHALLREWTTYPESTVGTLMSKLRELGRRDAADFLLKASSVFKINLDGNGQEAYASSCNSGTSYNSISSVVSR

UniProt Q8IU85, sequence (Q8IU85 whole entry, looked up): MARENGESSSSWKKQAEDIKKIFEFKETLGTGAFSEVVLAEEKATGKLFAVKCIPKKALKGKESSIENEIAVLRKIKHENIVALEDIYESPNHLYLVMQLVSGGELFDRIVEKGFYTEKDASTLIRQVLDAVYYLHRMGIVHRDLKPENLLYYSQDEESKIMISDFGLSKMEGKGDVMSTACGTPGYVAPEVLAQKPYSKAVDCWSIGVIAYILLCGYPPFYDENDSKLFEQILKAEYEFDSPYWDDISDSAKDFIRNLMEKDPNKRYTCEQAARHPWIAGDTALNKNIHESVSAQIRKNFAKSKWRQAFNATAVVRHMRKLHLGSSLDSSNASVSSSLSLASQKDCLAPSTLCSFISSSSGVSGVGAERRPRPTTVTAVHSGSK
UniProt O96017, sequence (O96017 whole entry): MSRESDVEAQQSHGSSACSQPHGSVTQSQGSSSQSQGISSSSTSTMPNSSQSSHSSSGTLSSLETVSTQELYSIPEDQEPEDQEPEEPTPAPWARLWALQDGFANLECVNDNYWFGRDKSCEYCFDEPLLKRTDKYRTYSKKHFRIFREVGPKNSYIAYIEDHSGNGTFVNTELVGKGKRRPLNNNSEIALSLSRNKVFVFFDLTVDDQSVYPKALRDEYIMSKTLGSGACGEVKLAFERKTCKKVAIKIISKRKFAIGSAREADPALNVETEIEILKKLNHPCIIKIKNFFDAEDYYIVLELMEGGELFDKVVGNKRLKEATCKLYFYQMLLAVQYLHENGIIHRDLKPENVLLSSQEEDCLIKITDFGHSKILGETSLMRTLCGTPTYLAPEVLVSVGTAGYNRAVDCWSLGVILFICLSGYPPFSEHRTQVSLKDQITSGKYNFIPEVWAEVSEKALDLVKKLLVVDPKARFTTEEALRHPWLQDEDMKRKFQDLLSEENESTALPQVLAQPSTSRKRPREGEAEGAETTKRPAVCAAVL
UniProt Q13557, sequence (Q13557 whole entry): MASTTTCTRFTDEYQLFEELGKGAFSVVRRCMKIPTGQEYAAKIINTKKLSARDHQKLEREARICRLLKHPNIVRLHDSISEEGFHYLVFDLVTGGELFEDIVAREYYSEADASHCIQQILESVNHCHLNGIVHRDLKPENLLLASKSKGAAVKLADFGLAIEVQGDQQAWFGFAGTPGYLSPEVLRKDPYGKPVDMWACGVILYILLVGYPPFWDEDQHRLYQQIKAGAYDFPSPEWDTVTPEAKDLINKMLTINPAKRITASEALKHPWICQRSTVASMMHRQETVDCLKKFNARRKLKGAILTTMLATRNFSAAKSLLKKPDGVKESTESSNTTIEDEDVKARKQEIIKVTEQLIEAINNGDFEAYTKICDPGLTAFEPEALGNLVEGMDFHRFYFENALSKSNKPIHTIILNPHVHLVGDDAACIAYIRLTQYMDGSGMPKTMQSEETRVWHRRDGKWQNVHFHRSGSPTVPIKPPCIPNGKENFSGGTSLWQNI
UniProt Q9UQM7, sequence (Q9UQM7 whole entry): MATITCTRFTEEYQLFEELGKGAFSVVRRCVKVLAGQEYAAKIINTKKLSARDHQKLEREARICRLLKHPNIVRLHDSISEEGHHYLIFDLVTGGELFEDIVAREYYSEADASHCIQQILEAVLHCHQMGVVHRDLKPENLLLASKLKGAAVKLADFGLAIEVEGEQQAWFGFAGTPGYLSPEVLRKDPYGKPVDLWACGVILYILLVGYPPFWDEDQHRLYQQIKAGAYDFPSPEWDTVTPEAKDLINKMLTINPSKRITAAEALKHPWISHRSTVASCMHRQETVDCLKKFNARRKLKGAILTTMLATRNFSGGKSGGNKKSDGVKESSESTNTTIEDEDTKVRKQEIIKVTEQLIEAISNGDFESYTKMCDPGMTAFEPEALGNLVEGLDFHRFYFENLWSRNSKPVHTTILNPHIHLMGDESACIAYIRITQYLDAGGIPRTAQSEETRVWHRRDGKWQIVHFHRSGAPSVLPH
UniProt P54646, sequence (P54646 whole entry, looked up): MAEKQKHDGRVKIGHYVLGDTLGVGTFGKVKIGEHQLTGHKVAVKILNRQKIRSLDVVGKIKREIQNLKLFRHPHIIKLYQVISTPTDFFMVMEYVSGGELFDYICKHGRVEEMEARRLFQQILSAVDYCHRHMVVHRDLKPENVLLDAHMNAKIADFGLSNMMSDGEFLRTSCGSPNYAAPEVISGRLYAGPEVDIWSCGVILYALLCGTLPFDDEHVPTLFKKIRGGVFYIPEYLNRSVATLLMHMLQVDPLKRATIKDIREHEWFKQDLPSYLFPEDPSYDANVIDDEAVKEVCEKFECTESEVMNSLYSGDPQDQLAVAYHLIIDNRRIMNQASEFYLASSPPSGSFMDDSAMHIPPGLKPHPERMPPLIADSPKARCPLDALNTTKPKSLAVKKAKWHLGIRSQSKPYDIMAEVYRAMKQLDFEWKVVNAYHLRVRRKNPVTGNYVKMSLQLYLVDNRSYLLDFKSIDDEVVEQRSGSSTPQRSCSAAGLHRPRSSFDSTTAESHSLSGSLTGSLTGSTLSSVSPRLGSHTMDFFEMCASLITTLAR

| Compound | inhibition [1] [%] | inhibition [2] [%] | inhibition [3] [%] | inhibition [4] [%] | inhibition [5] [%] | inhibition [6] [%] | inhibition [7] [%] | inhibition [8] [%] | inhibition [9] [%] | inhibition [10] [%] | inhibition [11] [%] | inhibition [12] [%] | inhibition [13] [%] | inhibition [14] [%] | inhibition [15] [%] | inhibition [16] [%] | inhibition [17] [%] | inhibition [18] [%] | inhibition [19] [%] | inhibition [20] [%] |
| --- | --- | --- | --- | --- | --- | --- | --- | --- | --- | --- | --- | --- | --- | --- | --- | --- | --- | --- | --- | --- |
| CS(=O)(=O)c1ccc(Oc2nccc(-c3c(-c4ccc(F)cc4)ncn3C3CCNCC3)n2)cc1 | 3.41 | -2.66 | 0.2 | -2.87 | 2.13 | 0.61 | 1.12 | 1.28 | 5.26 | 2.1 | 0.65 | 2.72 | 3.76 | -1.06 | 6.78 | 2.78 | -2.07 | 4.28 | 3.7 | 1.95 |
| Fc1ccc(Oc2nccc(-c3c(-c4ccc(F)cc4)ncn3C3CCNCC3)n2)cc1 | -0.1 | 0.78 | 3.87 | 1.52 | -1.18 | 0.12 | 1.42 | -1.43 | 1.02 | 1.76 | 4.77 | 2.82 | 6.35 | -2.12 | 0.64 | 1.08 | 6.69 | 3.02 | 6.36 | 3.32 |
| O=C(O)c1ccc(Oc2nccc(-c3c(-c4ccc(F)cc4)ncn3C3CCNCC3)n2)cc1 | 1.74 | -1.45 | 1.01 | 1.46 | 0.18 | 1.07 | 2.38 | -0.18 | 1.37 | 2.85 | 4.54 | 4.68 | 5.47 | -2.33 | -0.4 | 6.5 | 7.27 | 4.58 | 7.7 | 7.6 |
| NC(=O)CCc1ccccc1Oc1nccc(-c2c(-c3ccc(F)cc3)ncn2C2CCNCC2)n1 | -2.91 | 2.41 | 2.23 | 0.42 | -0.65 | -0.46 | 1.55 | -0.35 | 0.73 | -3.28 | -3.23 | -2.69 | 0.02 | -1.83 | -0.87 | 0.82 | 1.57 | -3.67 | -2.84 | 0.92 |
| O=C1NC(=O)C(c2ccccc2)=C1Nc1ccccc1 | 5.48 | 4.37 | 18.5 | 3.32 | 9.22 | 6.92 | 11.5 | 0.62 | 3 | 3.13 | 4.51 | 3.71 | 7.42 | -1.37 | -0.46 | -2.05 | -1.75 | -1.56 | 1.67 | -2.51 |
| O=C1NC(=O)C(c2ccccc2Cl)=C1Nc1cc(Cl)c(O)c(Cl)c1 | 3.61 | 3.41 | 5.33 | -1.31 | 2.29 | 0.83 | 4.26 | -0.96 | 0.14 | 2.22 | 2.64 | 0.53 | 3.74 | -2.03 | -3.72 | 1.07 | 4.8 | 2.37 | 3.75 | 3.92 |
| Fc1ccc(-c2ncn(C3CCNCC3)c2-c2ccnc(Oc3cccc(C(F)(F)F)c3)n2)cc1 | 3.9 | 0.1 | -0.11 | -0.84 | 2.06 | 2.52 | 3.08 | 0.93 | 0.93 | 4.85 | 2.6 | 3.98 | 5.24 | -0.04 | 1.47 | 6 | 8.71 | 1.57 | 1.85 | 8.37 |
